From PubChem BioAssay AID2546 (National Center for Advancing Translational Sciences (NCATS), 2010)
Hit rate of the full screen: of about 310,000 compounds, about 11,000 (3.5%) were called active. Inconclusive results, whose numbers are uncertain, are shown with a selection of clear calls. Calls follow the shape of the dose curve; as a rule, active = well fitted inhibition curve with a large enough effect; inconclusive = small, poorly fitted or top-dose-only effect, or effect the other way; inactive = flat fitted curve, though single readings scatter. Potencies of inconclusive entries are left out as doubtful fits.

Experiment: VP16 counterscreen qHTS for inhibitors of ROR gamma transcriptional activity;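 also: Gal4-VP16 expression switched on by copper sulfate through the metallothionein promoter; nearly all actives have a fitted effect of over 50% in size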
Conditions: Drosophila S2 Gal4-VP16 UAS-luciferase, luminescence, 20 h; series mostly up to 53.6 µM
Potency is read from the fitted curve at half-maximal effect; tags tell the direction and shape of the fitted curve.

| SMILES | Potency |
| --- | --- |
| CCC(=O)c1ccc(N2CCCC2)c(F)c1 | inconclusive [activator, full curve] |
| O=C(N/N=C/c1ccc(F)cc1)c1ccc(Br)cc1 | inactive |
| CCCCn1nc(C(=O)NC2=NCCS2)c2ccccc2c1=O | inconclusive [inhibitor, single point] |
| COc1ccc2ccccc2c1CNC(C)CCc1ccccc1 (stereo unspecified) | inactive |
| COc1ccc2c(c1)CCc1c(C(=O)N3CC4(C)CC3CC(C)(C)C4)noc1-2 (stereo unspecified) | inconclusive [inhibitor, single point] |
| COc1ccccc1C(=O)NC(=O)CSc1cccc[n+]1[O-] | inconclusive [activator, full curve, poor fit] |
| Cc1ccc(NS(=O)(=O)c2ccc(NC(=O)C3CC3)cc2)c(C)c1 | active: 25.1 µM |
| COc1cc(CN2CCc3ccccc3C2)ccc1O | active: 3.55 µM |
| C(#Cc1ccccc1)Cn1nnc2ccccc21 | inconclusive [activator, single point] |
| CN1C(=O)C(/C(N)=N/NC(=O)c2ccccc2)C2CC1(C)Oc1ccccc12 (stereo unspecified) | inconclusive [inhibitor, single point] |
| COc1cc(C(=O)NC(=S)N(CCc2ccccc2)CCc2ccccc2)cc(OC)c1OC | active: 0.794 µM |
| CN1CCN(c2ncc3nc(-c4cn(C)c5ccccc45)c(=O)n(-c4ccccc4)c3n2)CC1 | inconclusive [inhibitor, single point] |
| COc1ccc(C(=O)O/N=C(\N)c2ccc(Br)cc2)cc1 | inconclusive [inhibitor, single point] |
| O=C(/C=C/c1ccco1)NC(=S)Nc1ccc(N2CCCC2)cc1 | active: 3.16 µM |
| CC(c1ccco1)N(C(=O)COc1ccc(Cl)cc1Cl)c1ccccn1 (stereo unspecified) | active: 11.2 µM |
| Nc1cc(Oc2ccc(F)cc2F)cc([N+](=O)[O-])c1 | inconclusive [inhibitor, single point] |
| CCN(CC)S(=O)(=O)c1ccc(N/N=C(\C)c2ccncc2)nc1 | inconclusive [inhibitor, single point] |
| O=C(c1c(F)cccc1F)N1CCN(c2cccc(C(F)(F)F)c2)CC1 | active: 17.8 µM |
| CCOC(=O)C(=O)Nc1nnc(C2CCCCC2)s1 | inactive |
| COc1ccccc1NC(=O)Cn1c(=O)oc2ccccc21 | inactive |
| O=C(/C=C/Nc1ccccc1)c1ccc(Cl)cc1Cl | inconclusive [inhibitor, partial curve] |
| S=c1[nH]ccn1-c1cccc(Cl)c1Cl | inconclusive [inhibitor, single point] |
| CC(C)(C)c1n[nH]c(=S)n(/N=C/c2cccs2)c1=O | active: 15.8 µM |
| CN1CCN(C(=O)c2ccc(-c3cccs3)s2)CC1 | inconclusive [inhibitor, single point] |

| SMILES | Potency |
| --- | --- |
| CC(=O)c1ccc(NC(=O)c2sc3nc(C)c(C)c(C)c3c2N)cc1 | inconclusive [activator, full curve, poor fit] |
| COC(=O)C1=C(C)N(Cc2ccccc2)C(=NCc2ccco2)N[C@H]1c1ccc(Br)cc1 | inconclusive [inhibitor, single point] |
| COc1ccccc1NC(=O)Nc1nnc(C(C)c2ccccc2)s1 (stereo unspecified) | inactive |
| Cn1c(=O)c2c(nc(Br)n2Cc2ccc3ccccc3c2)n(C)c1=O | inconclusive [inhibitor, single point] |
| COc1ccc(NC(=O)C23CC4CC(C2)CC(c2ccccc2)(C4)C3)c(OC)c1 | inconclusive [inhibitor, single point] |
| COc1ccc(C(=O)/C=C/C(=O)N(CC(=O)NCCC(C)C)Cc2cccs2)c(O)c1 | inconclusive [inhibitor, single point] |
| FC(F)(F)c1cccc(NC(=S)Nc2cccc(NC(=S)Nc3cccc(C(F)(F)F)c3)n2)c1 | inconclusive [inhibitor, single point] |
| CCOc1ccc(-c2nc(S(=O)(=O)c3ccccc3)c(NCc3cccnc3)o2)cc1 | inactive |
| CC(=O)c1cccc(NC(=S)NC(=O)c2ccccc2)c1 | inconclusive [inhibitor, single point] |
| CC(C)Oc1ccc(/C=N/NC(=O)c2ccc(N(Cc3ccccc3)S(C)(=O)=O)cc2)cc1 | inconclusive [inhibitor, single point] |
| Cc1ccc(-c2nnc(NC(=O)Cc3ccc(F)cc3)o2)c(C)c1 | active: 1.26 µM |
| Cc1nc(C(F)(F)F)c(C(=O)N/N=C(\N)c2ccccn2)s1 | inconclusive [inhibitor, partial curve] |
| Cc1ccc2c(c1)nnn2C1CCN(S(=O)(=O)c2ccc(C(=O)N(C)C)cc2)CC1 | inconclusive [inhibitor, single point] |
| O=C(Cn1ncc(Cl)c(Cl)c1=O)N1CCc2ccccc21 | inconclusive [inhibitor, single point] |
| O=C1/C(=N\S(=O)(=O)c2cccs2)C([n+]2ccc(CCCc3ccccc3)cc2)=C([O-])c2ccccc21 | inconclusive [inhibitor, single point] |
| O=C(Nc1nnc(C2=COCCO2)o1)c1cccc([N+](=O)[O-])c1 | active: 3.98 µM |
| CCn1c(Cc2cccc3ccccc23)nnc1SCC(=O)Nc1nccs1 | inconclusive [inhibitor, single point] |
| CCOC(=O)C(NC(=O)NCc1ccc(OC)cc1)(OCC)C(F)(F)F (stereo unspecified) | inactive |
| Cc1c(Cl)cccc1Nc1nc(N)nc(CSCCO)n1 | inconclusive [activator, single point] |
| Clc1nssc1=Nc1ccccc1 | inconclusive [inhibitor, single point] |
| Cc1ccc2cc3cc(C(=O)N4CCCCCC4)oc3nc2c1 | inconclusive [inhibitor, partial curve] |
| O=C(/C=C/c1cccs1)NC1CCCC1 | inconclusive [inhibitor, single point] |
| COc1ccc(-c2cc(C(F)(F)F)nc(N3CCN(C)CC3)n2)cc1 | inactive |
| COc1ccc(NC(=O)N2CCC(Cc3ccccc3)CC2)cc1 | inactive |

| SMILES | Potency |
| --- | --- |
| C/C(=N\NC(=O)c1ccc(NS(=O)(=O)c2cccs2)cc1)c1ccc(Cl)cc1 | inactive |
| COc1ccc(C(C(=O)NC2CCCCC2)N(C(=O)CCl)c2ccc(OC)cc2)cc1 (stereo unspecified) | inconclusive [inhibitor, single point] |
| C=CCn1c(Cc2ccccc2)n[nH]c1=S | inconclusive [inhibitor, single point] |
| Cc1ccc(-c2ccc(CCC(=O)O)n2NC(=O)c2cccs2)cc1 | inconclusive [inhibitor, full curve, poor fit] |
| CCCCNC(=S)NNC(=O)c1cc(C)on1 | active: 11.2 µM |
| CC(=O)NN1C(=O)c2ccc3c4c(ccc(c24)C1=O)C(=O)N(NC(C)=O)C3=O | active: 11.2 µM |
| Nn1c(CSc2nc3ccccc3o2)nnc1CSc1nc2ccccc2o1 | inactive |
| COc1cc2nc(NC(=O)c3ccccc3)[nH]c(=O)c2cc1OC | inconclusive [inhibitor, single point] |
| O=[N+]([O-])c1ccc(NNC(=S)Nc2ccccc2)cc1 | inconclusive [inhibitor, single point] |
| CCC(c1nnc(SCC(=O)Nc2nnc(-c3ccccc3)o2)n1Cc1ccccc1)N(C)C (stereo unspecified) | inconclusive [inhibitor, single point] |
| COc1ccccc1CNC(=S)Nc1ccc(F)cc1 | active: 6.31 µM |
| CCOC(=O)c1cccc(NC(=O)C2CCCN2S(=O)(=O)c2cccc3cccnc23)c1 (stereo unspecified) | inconclusive [inhibitor, single point] |
| Nc1nc2c(s1)CCc1c-2cnn1-c1ccccc1 | inactive |
| O=C(NCCOc1ccccc1)c1ccc2c(c1)OCO2 | inconclusive [inhibitor, full curve] |
| Cn1cc(CN(CCCN2CCOCC2)C(=S)Nc2cccc(Cl)c2)c2ccccc21 | inconclusive [inhibitor, single point] |
| COc1ccc(C(=O)NC(=S)NCc2ccc(-c3nc4ccccc4o3)cc2)cc1OC | active: 2.51 µM |
| Cn1cc(-c2nc3cnc(N4CCNCC4)nc3n(C3CC3)c2=O)c2ccccc21 | inconclusive [inhibitor, single point] |
| O=C(NCCN1CCN(c2cccc(Cl)c2)CC1)c1ccc(CSc2nc3ccncc3[nH]2)cc1 | inconclusive [inhibitor, single point] |
| COc1ccc(/C(C)=N\NC(=O)CNC(=O)C(c2ccccc2)c2ccccc2)cc1OC | inconclusive [inhibitor, single point] |
| O=C(NCc1cccc(Cl)c1)C1CCC(=O)N(CCCN2CCOCC2)C1 (stereo unspecified) | inactive |
| CSc1cc(/C=N/O)c(SC)s1 | inconclusive [inhibitor, single point] |
| N/C(=N\OC(=O)CC1CCCCC1)c1ccncc1 | inconclusive [activator, single point] |
| COCCN=C1OC(=O)N2C(=O)C3=C4C(C[C@H]5C(=O)N(CC(=O)OC)C(=O)[C@H]5[C@H]4[C@@]12Cc1ccccc1)[C@H]1C(=O)N(CC(=O)OC)C(=O)[C@H]1[C@H]3C (stereo partly specified) | inactive |
